The results in this text go back to a collection of fitness landscapes (doi:10.1016/j.celrep.2020.107928).

Whole data set: some 81,000 sequences, median “one-hybrid fitness for binding parS DNA” near -0.17, cut for the highest 2% near 0.51. The list shows a part of the results. A value given as a limit tells only on which side of the number the result lay.

B1: Caulobacter ParB omega fusion; a variant is named by its letters at X, in order, B8GW30 (parent)
chain: MESVVVGEPGMSEGRRGLGRGLSALLGEVDAAPAQAPGEQLGGSREAPIEILQRNPDQPRRTFREEDLEDLSNSIREKGVLQPILVRPSPDTAGEYQIVAGERAWRAAQRAGLKTVPIMVRELDDLAVLEIGIIENVQRADLNVLEEALSYKVLMEKFERTQENIAQTIGKSXSHVANXMRLLXLPDEVQSYLVSGELTAXHARAIAAAADPVALAKQIIEGGLSVRETEALARKAPNLSAGKSKGGRPPRVKDTDTQALESDLSSVLGLDVSIDHRGSTGTLTITYATLEQLDDLCNRLTRGI

The variants in this experiment derive from B1. The experiment in a line: one-hybrid fitness for binding parS DNA (scaled: cognate 1, non-cognate 0); higher = stronger binding. Particulars: with parS DNA site. The method in brief: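 In E. coli USO, a HIS3 reporter with its site placed 19 bp from the promoter was used to select Caulobacter ParB variants randomised at four specificity codons. Growth lasted 48 hours at 37°C on histidine-free M9 containing 0.1 mM IPTG and 5 mM 3-AT. Fitness was taken as the log change in variant-to-wild-type read ratio from Illumina sequencing of pre- and post-selection plasmids, rescaled between the non-cognate and cognate sites.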
Turning to HTHK, the “one-hybrid fitness for binding parS DNA” value was no more than 0.2.
The value for LNRR was no more than 0.2; that for AWNR was no more than 0.2; that for RTAC was 0.98.
To SFDF belongs no more than 0.2; to QHFA, no more than 0.2; to HLPV, no more than 0.2.
Consider YPLC, for which the “one-hybrid fitness for binding parS DNA” value was no more than 0.2.
For RMSD, the “one-hybrid fitness for binding parS DNA” value was no more than 0.2.
The value for IGST was no more than 0.2; that for ATSV was no more than 0.2.
Consider NLSF, for which the “one-hybrid fitness for binding parS DNA” value is no more than 0.2.
As to HYED, the “one-hybrid fitness for binding parS DNA” value was no more than 0.2.
For HGRM, the “one-hybrid fitness for binding parS DNA” value is no more than 0.2.
Take RRAV: the “one-hybrid fitness for binding parS DNA” value is no more than 0.2.
Take KRDA: the “one-hybrid fitness for binding parS DNA” value is no more than 0.2.
Regarding ERRS, the “one-hybrid fitness for binding parS DNA” value is no more than 0.2.
Consider NIFD, for which the “one-hybrid fitness for binding parS DNA” value was no more than 0.2.
To PSVE belongs no more than 0.2; to LNTE, no more than 0.2.
On to EALG, for which the “one-hybrid fitness for binding parS DNA” value is no more than 0.2.
The value for STLE was no more than 0.2; that for LCSE was no more than 0.2; that for LSIM was no more than 0.2.
To YEEM belongs no more than 0.2.
To AYDP belongs no more than 0.2.
Take GLNG: the “one-hybrid fitness for binding parS DNA” value was no more than 0.2.
KRNT: the “one-hybrid fitness for binding parS DNA” value is no more than 0.2.
PVRA: the “one-hybrid fitness for binding parS DNA” value was no more than 0.2.
The value for VQGI was no more than 0.2; that for CTAV was no more than 0.2; that for SHVG was no more than 0.2.
Turning to IQAT, the “one-hybrid fitness for binding parS DNA” value is no more than 0.2.
The value for FLGV was no more than 0.2; that for YYVQ was no more than 0.2.
With YTTW, the “one-hybrid fitness for binding parS DNA” value was no more than 0.2.
To LPGK belongs no more than 0.2; to RFRW, 0.237; to VVCS, no more than 0.2.
KATM: the “one-hybrid fitness for binding parS DNA” value was no more than 0.2.
The value for FNWR was no more than 0.2; that for RVVE was no more than 0.2; that for TDPR was no more than 0.2.
Regarding QFQC, the “one-hybrid fitness for binding parS DNA” value is no more than 0.2.
With SHTC, the “one-hybrid fitness for binding parS DNA” value was no more than 0.2.
Turning to PING, the “one-hybrid fitness for binding parS DNA” value is no more than 0.2.
The value for PMPA was no more than 0.2.
In the case of VGMR, the “one-hybrid fitness for binding parS DNA” value was no more than 0.2.
For ISDN, the “one-hybrid fitness for binding parS DNA” value was determined as 0.207.
As for PFVR, the “one-hybrid fitness for binding parS DNA” value was no more than 0.2.
Take ASIV: the “one-hybrid fitness for binding parS DNA” value was no more than 0.2.
To GPRC belongs no more than 0.2; to KARW, no more than 0.2.
To SYSC belongs no more than 0.2; to HLML, no more than 0.2.
To QYNG belongs no more than 0.2.
On to CRLI, for which the “one-hybrid fitness for binding parS DNA” value was no more than 0.2.
The value for RWAG was 0.72.
The value for NNCL was no more than 0.2.
The value for KEMR was no more than 0.2.
For QIKG, the “one-hybrid fitness for binding parS DNA” value was no more than 0.2.
As to YRHA, the “one-hybrid fitness for binding parS DNA” value was no more than 0.2.
To FWFS belongs no more than 0.2.
To RITN belongs 0.409.
The value for GLES was no more than 0.2; that for RYGI was no more than 0.2.
For GQNS, the “one-hybrid fitness for binding parS DNA” value was no more than 0.2.
The value for KRDY was no more than 0.2.
In the case of LTCR, the “one-hybrid fitness for binding parS DNA” value is no more than 0.2.
To TKTT belongs no more than 0.2; to WFKT, no more than 0.2.
To ERNK belongs no more than 0.2.
For NDRK, the “one-hybrid fitness for binding parS DNA” value was no more than 0.2.
The value for YRCL was no more than 0.2.
NPKG: the “one-hybrid fitness for binding parS DNA” value is no more than 0.2.
With FPAL, the “one-hybrid fitness for binding parS DNA” value was no more than 0.2.
To PAKR belongs no more than 0.2; to TQLW, no more than 0.2.
The value for SETR was no more than 0.2.
To RPWC belongs no more than 0.2; to FQIS, no more than 0.2; to WAPS, no more than 0.2.
On to AGWN, for which the “one-hybrid fitness for binding parS DNA” value is no more than 0.2.
On to EPDG, for which the “one-hybrid fitness for binding parS DNA” value is no more than 0.2.
The value for CRQY was no more than 0.2; that for RDKF was no more than 0.2.
In the case of RPQV, the “one-hybrid fitness for binding parS DNA” value was no more than 0.2.
The value for NFAV was no more than 0.2.
In the case of MVWG, the “one-hybrid fitness for binding parS DNA” value is no more than 0.2.
The value for MKET was no more than 0.2; that for KTDL was no more than 0.2; that for GHSI was no more than 0.2.
The value for NCGR was no more than 0.2.
Consider WLHG, for which the “one-hybrid fitness for binding parS DNA” value was no more than 0.2.
Take MSCE: the “one-hybrid fitness for binding parS DNA” value was no more than 0.2.
To YKRH belongs no more than 0.2; to MSKI, no more than 0.2.
